{"source": "paper PMC4336329", "about": "(PLoS ONE, 2015)", "note": "The whole screen tested about 310,000 compounds, of which about 2,200 (0.71%) showed an effect of 50% or more. Effects have a minus sign here. Some of the results follow.", "data": [{"molecular_target": "human ether-à-go-go-related gene (hERG) potassium channel (human, UniProt Q12809)", "sequence (Q12809 whole entry, looked up)": "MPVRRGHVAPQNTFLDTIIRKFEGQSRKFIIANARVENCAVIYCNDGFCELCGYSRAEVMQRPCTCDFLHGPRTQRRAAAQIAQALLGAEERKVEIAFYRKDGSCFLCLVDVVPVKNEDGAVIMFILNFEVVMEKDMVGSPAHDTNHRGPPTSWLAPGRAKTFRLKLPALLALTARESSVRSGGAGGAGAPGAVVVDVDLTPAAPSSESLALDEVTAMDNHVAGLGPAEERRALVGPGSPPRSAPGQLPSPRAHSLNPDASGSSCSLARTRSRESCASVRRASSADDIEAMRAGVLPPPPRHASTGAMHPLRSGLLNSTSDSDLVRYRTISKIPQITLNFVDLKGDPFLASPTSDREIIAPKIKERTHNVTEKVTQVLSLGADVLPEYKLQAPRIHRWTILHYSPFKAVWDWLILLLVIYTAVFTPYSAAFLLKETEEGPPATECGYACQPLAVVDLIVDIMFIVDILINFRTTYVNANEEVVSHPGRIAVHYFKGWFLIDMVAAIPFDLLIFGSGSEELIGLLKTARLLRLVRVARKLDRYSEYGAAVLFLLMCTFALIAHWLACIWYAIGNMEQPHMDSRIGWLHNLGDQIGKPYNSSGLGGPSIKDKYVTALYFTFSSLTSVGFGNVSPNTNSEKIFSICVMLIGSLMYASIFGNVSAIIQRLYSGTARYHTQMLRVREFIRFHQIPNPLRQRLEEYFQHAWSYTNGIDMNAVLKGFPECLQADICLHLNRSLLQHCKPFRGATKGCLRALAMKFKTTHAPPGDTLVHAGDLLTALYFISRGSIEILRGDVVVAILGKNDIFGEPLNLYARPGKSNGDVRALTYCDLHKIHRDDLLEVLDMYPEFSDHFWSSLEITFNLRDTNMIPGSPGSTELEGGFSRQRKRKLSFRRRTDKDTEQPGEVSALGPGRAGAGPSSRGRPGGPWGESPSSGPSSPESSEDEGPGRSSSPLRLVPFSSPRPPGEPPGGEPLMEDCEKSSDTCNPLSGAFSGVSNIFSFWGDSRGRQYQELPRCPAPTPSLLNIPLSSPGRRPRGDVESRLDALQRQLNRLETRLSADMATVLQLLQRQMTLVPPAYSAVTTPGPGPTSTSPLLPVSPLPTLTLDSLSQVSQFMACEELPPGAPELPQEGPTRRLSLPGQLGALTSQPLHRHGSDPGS", "experiment": "primary screen, population patch clamp on CHO cells stably expressing hERG", "units": {"hERG current change (%, negative = inhibition) at 1uM": "%"}, "values": [{"smiles": "COc1cc(/C=N/NC(=O)c2nc(C)cc(C)n2)ccc1O", "hERG current change (%, negative = inhibition) at 1uM": 12.1}, {"smiles": "CCOC(=O)c1[nH]c(C)c(CN(CCc2ccc(OC)c(OC)c2)C(=O)CCCC(=O)O)c1C", "hERG current change (%, negative = inhibition) at 1uM": 13.7}, {"smiles": "COc1ccc(OC)c(S(=O)(=O)Nc2ccc(-c3ccc4nncn4n3)cc2)c1", "hERG current change (%, negative = inhibition) at 1uM": -14.7}, {"smiles": "CN1C(=O)N(C)c2ccc(C=O)c3cccc1c23", "hERG current change (%, negative = inhibition) at 1uM": 15.4}, {"smiles": "CN1CCN(C(=O)c2ccccc2-c2ccccc2C(=O)O)CC1", "hERG current change (%, negative = inhibition) at 1uM": 18.2}, {"smiles": "COc1ccc(CN(C)C(=O)c2ccc(NS(=O)(=O)c3ccc4[nH]c(=O)[nH]c4c3)cc2)c(OC)c1", "hERG current change (%, negative = inhibition) at 1uM": 2}, {"smiles": "COC(=O)c1ccc(NC(=O)C2CCCN(S(C)(=O)=O)C2)cc1", "note": "(stereo not shown)", "hERG current change (%, negative = inhibition) at 1uM": 8.68}, {"smiles": "CCCC(=O)Nc1ccc(Cl)c(NC(=S)NC(=O)C(C)C)c1", "hERG current change (%, negative = inhibition) at 1uM": 18.9}, {"smiles": "CC(On1nnc2ccccc21)C(=O)N1CCN(Cc2ccccc2)CC1", "note": "(stereo not shown)", "hERG current change (%, negative = inhibition) at 1uM": 5.06}, {"smiles": "O=C(c1cc(COc2ccc(F)cc2Cl)on1)N(CCO)Cc1cccs1", "hERG current change (%, negative = inhibition) at 1uM": 24.7}, {"smiles": "COc1cc(C(=O)NC(C)c2ccc3ccccc3c2)cc(Cl)c1O", "note": "(stereo not shown)", "hERG current change (%, negative = inhibition) at 1uM": 8.35}, {"smiles": "CCn1c(C)c(C)c2cc(C(=O)NC3CCCCCC3)ccc21", "hERG current change (%, negative = inhibition) at 1uM": 7.79}, {"smiles": "Cc1ccc2c(Cl)cc(Cl)c(OCC(=O)Nc3cccc(S(N)(=O)=O)c3)c2n1", "hERG current change (%, negative = inhibition) at 1uM": 8.17}, {"smiles": "O=C(Oc1ccc(/C=N/NC(=O)c2ccccc2O)cc1)c1ccccc1", "hERG current change (%, negative = inhibition) at 1uM": 0.189}, {"smiles": "Cc1cc(C(=O)COc2cccnc2[N+](=O)[O-])c(C)n1-c1ccccc1", "hERG current change (%, negative = inhibition) at 1uM": 1.73}, {"smiles": "O=C(NCc1ccncc1)Nc1ccc2c(c1)OCO2", "hERG current change (%, negative = inhibition) at 1uM": 6.2}, {"smiles": "CCOC(=O)Cc1nc2ccccc2[nH]1", "hERG current change (%, negative = inhibition) at 1uM": -5.43}, {"smiles": "O=C(Cn1ncc2c3ccccc3n(Cc3ccccc3F)c2c1=O)N1CCC2(CC1)OCCO2", "hERG current change (%, negative = inhibition) at 1uM": -30.1}, {"smiles": "Cc1ccc(OCCOC(=O)c2cccc(S(=O)(=O)N3CC(C)OC(C)C3)c2)cc1", "note": "(stereo not shown)", "hERG current change (%, negative = inhibition) at 1uM": 3.7}, {"smiles": "CCN(CC)c1ccc(/C=N/N2CCN(Cc3ccc(C)cc3C)CC2)c(O)c1", "hERG current change (%, negative = inhibition) at 1uM": 6.01}, {"smiles": "O=C(O)c1cc(S(=O)(=O)N2CCN(S(=O)(=O)c3ccccc3)CC2)ccc1Cl", "hERG current change (%, negative = inhibition) at 1uM": 12.7}, {"smiles": "Cc1cc(/C=N/NC(=O)c2ccccc2F)c(C)n1-c1ccccc1", "hERG current change (%, negative = inhibition) at 1uM": 7.97}, {"smiles": "O=C(O)c1ccc2nc3c(nc2c1)-c1ccccc1C3=O", "hERG current change (%, negative = inhibition) at 1uM": 8.14}, {"smiles": "CCCCOC(=O)Nc1cccc(C(=O)OCC)c1", "hERG current change (%, negative = inhibition) at 1uM": 8.89}, {"smiles": "CSc1ncc(CN2CCCC(C(=O)c3ccc(C(C)(C)C)cc3)C2)cn1", "note": "(stereo not shown)", "hERG current change (%, negative = inhibition) at 1uM": -2.16}, {"smiles": "CC1(C)CNc2cc([N+](=O)[O-])ccc2S1", "hERG current change (%, negative = inhibition) at 1uM": 13}, {"smiles": "COc1ccc(NC(C)=O)cc1NS(=O)(=O)c1cn(C)c(=O)n(C)c1=O", "hERG current change (%, negative = inhibition) at 1uM": 12.9}, {"smiles": "O=C1CC(c2cccc(F)c2)SC(N(c2ccccc2)c2ccccc2)=N1", "note": "(stereo not shown)", "hERG current change (%, negative = inhibition) at 1uM": -10.5}, {"smiles": "COc1ccc(Oc2coc3cc(OC(=O)/C=C/c4ccc(F)cc4)ccc3c2=O)cc1", "hERG current change (%, negative = inhibition) at 1uM": 5.3}, {"smiles": "c1ccc2c(c1)OCC(CNc1ncnc3nc[nH]c13)O2", "note": "(stereo not shown)", "hERG current change (%, negative = inhibition) at 1uM": 15.1}, {"smiles": "O=C1NC(=Nc2ccc(F)cc2)SC1Cc1ccc(F)cc1", "note": "(stereo not shown)", "hERG current change (%, negative = inhibition) at 1uM": -11.5}, {"smiles": "NC(=O)C1=C[C@@H](c2csc3ccccc23)C[C@@H](OCCCCO)O1", "hERG current change (%, negative = inhibition) at 1uM": 0.321}, {"smiles": "COc1cccc(NC(=O)c2cc([N+](=O)[O-])ccc2NC(=O)CNCC2CCCO2)c1", "note": "(stereo not shown)", "hERG current change (%, negative = inhibition) at 1uM": 5.89}, {"smiles": "COc1ccc(C(C(=O)NC2CCCCC2)N(C(=O)c2sc(C)nc2C)c2ccc(C(C)=O)cc2)cc1", "note": "(stereo not shown)", "hERG current change (%, negative = inhibition) at 1uM": 13.8}, {"smiles": "COc1ccc(C=NCC2OCCc3ccccc32)cc1OC", "note": "(stereo not shown)", "hERG current change (%, negative = inhibition) at 1uM": 6.7}, {"smiles": "CCOC(=O)c1ccc(NC(=O)CSc2nc(=O)n3cccc(C)c3n2)cc1", "hERG current change (%, negative = inhibition) at 1uM": 15.7}, {"smiles": "CC(CC(=O)Nc1ccccc1)n1ccnc1", "note": "(stereo not shown)", "hERG current change (%, negative = inhibition) at 1uM": -1.99}, {"smiles": "Cc1cc2c(NCC(C)O)ncnc2s1", "note": "(stereo not shown)", "hERG current change (%, negative = inhibition) at 1uM": 18.6}, {"smiles": "O=C(CN(C(=O)c1csnn1)c1cccc2ccccc12)NC1CCCC1", "hERG current change (%, negative = inhibition) at 1uM": 6.43}, {"smiles": "O=C(O)COc1ccccc1/C=N/NC(=O)/C(=C\\c1ccc2c(c1)OCO2)NC(=O)c1ccccc1", "hERG current change (%, negative = inhibition) at 1uM": 8.44}, {"smiles": "COc1cccc2cc(C(C)N(CCCN3CCOCC3)C(=S)Nc3ccc(C)c(C)c3)oc12", "note": "(stereo not shown)", "hERG current change (%, negative = inhibition) at 1uM": 12.1}, {"smiles": "O=C(Cn1nnc(-c2ccccc2F)n1)Nc1cccc2ncccc12", "hERG current change (%, negative = inhibition) at 1uM": 10.8}, {"smiles": "CCCc1cc(=O)[nH]c(SCc2cccnc2)n1", "hERG current change (%, negative = inhibition) at 1uM": 2.98}, {"smiles": "CC1Cc2ccccc2N1c1ncnc2c1nnn2Cc1ccccc1Cl", "note": "(stereo not shown)", "hERG current change (%, negative = inhibition) at 1uM": 12.3}, {"smiles": "Cc1ccc(CS(=O)(=O)Cc2ccc(C(=O)NCc3cccnc3)o2)cc1", "hERG current change (%, negative = inhibition) at 1uM": 3.15}, {"smiles": "O=C(NCCO)c1ccc2[nH]c3ccccc3c2c1", "hERG current change (%, negative = inhibition) at 1uM": 12.7}, {"smiles": "O=C(CCN1C(=O)c2ccccc2C1=O)Nc1cccc(S(=O)(=O)N2CCCCC2)c1", "hERG current change (%, negative = inhibition) at 1uM": 10.5}, {"smiles": "COc1ccc(-c2c3c(=O)n(C)c(=O)n(C)c3cn2-c2ccccc2)cc1", "hERG current change (%, negative = inhibition) at 1uM": 11.3}, {"smiles": "O=C(Cn1nc(-c2ccc(Cl)cc2)ccc1=O)NCc1ccc2c(c1)OCO2", "hERG current change (%, negative = inhibition) at 1uM": 12.6}, {"smiles": "CN(C)CCCn1cnc2c(c1=N)C(c1ccccc1)c1ccc3ccccc3c1O2", "note": "(stereo not shown)", "hERG current change (%, negative = inhibition) at 1uM": -61.9}, {"smiles": "CC1CCCN(C(=O)C2CCN(C(=O)Nc3ccccc3)CC2)C1", "note": "(stereo not shown)", "hERG current change (%, negative = inhibition) at 1uM": 2.01}, {"smiles": "Cc1ccc(-n2nnnc2SCC(=O)Nc2c(C)n(C)n(-c3ccccc3)c2=O)cc1", "hERG current change (%, negative = inhibition) at 1uM": 9.64}, {"smiles": "CCOc1cc(/C=C2/C(=N)N3N=C(C)SC3=NC2=O)ccc1OS(=O)(=O)c1ccc(C)cc1", "hERG current change (%, negative = inhibition) at 1uM": 11.3}, {"smiles": "COc1ccc(C(=O)N2CCN(C)C(C)C2)cc1OC1CCN(C(C)=O)CC1", "note": "(stereo not shown)", "hERG current change (%, negative = inhibition) at 1uM": 14.7}, {"smiles": "O=C(/C=C/c1ccco1)NCc1ccccn1", "hERG current change (%, negative = inhibition) at 1uM": 4.92}]}]}
